# According to the supplement of paper PMC8728848:
# Some of the results follow.
# B1: RS2L (Ralstonia solanacearum), B5RXL5_RALSO (protein)
# chain: MAQQGVFTLPANTSFGVTAFANAANTQTIQVLVDNVVKATFTGSGTSDKLLGSQVLNSGSGAIKIQVSVNGKPSDLVSNQTILANKLNFAMVGSEDGTDNDYNDGIAVLNWPLG
# Legend:
# Assay in all cases: glycan array binding signal (z-score within array); higher = stronger binding
# Settings in all cases: glycan notation: IUPAC condensed, linker removed
# [1] = target: Gal(b1-3)[Fuc(a1-4)]GlcNAc(b1-3)Gal(b1-4)GlcNAc
# Procedure, shortened: (§1)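 Glycan array data were curated from 3228 arrays in the Consortium for Functional Glycomics database and kept only where the protein sequence was available. Glycan names were converted to IUPAC-condensed notation, and columns mapping to the same glycan were averaged. The binding signal is a within-array Z-score, averaged across arrays of the same protein sequence at different concentrations or buffers and across linkers. Negative Z-scores can be read as non-binding.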
# [2] = target: Gal(b1-3)[Fuc(a1-4)]GlcNAc(b1-3)Gal(b1-4)[Fuc(a1-3)]GlcNAc
# Procedure, shortened: as §1
# [3] = target: Gal(b1-3)[GlcNAc(b1-6)]GalNAc
# Procedure, shortened: as §1
# [4] = target: Gal(b1-3)[Neu5Ac(a2-6)]GalNAc
# Procedure, shortened: as §1
# [5] = target: Gal(b1-3)[Neu5Ac(a2-6)]GlcNAc(b1-6)Gal(b1-4)Glc
# Procedure, shortened: as §1
# [6] = target: Gal(b1-3)[Neu5Ac(b2-6)]GalNAc
# Procedure, shortened: as §1
# Gal(b1-4)Gal = target: Gal(b1-4)Gal
# Procedure, shortened: as §1
# [7] = target: Gal(b1-4)GalNAc(a1-3)[Fuc(a1-2)]Gal(b1-4)GlcNAc
# Procedure, shortened: as §1
# [8] = target: Gal(b1-4)GalNAc(b1-3)[Fuc(a1-2)]Gal(b1-4)GlcNAc
# Procedure, shortened: as §1
# Gal(b1-4)Glc = target: Gal(b1-4)Glc
# Procedure, shortened: as §1
# Gal(b1-4)Glc6S = target: Gal(b1-4)Glc6S
# Procedure, shortened: as §1
# Gal(b1-4)GlcNAc = target: Gal(b1-4)GlcNAc
# Procedure, shortened: as §1
# [9] = target: Gal(b1-4)GlcNAc(a1-6)Gal(b1-4)GlcNAc
# Procedure, shortened: as §1
# Gal(b1-4)GlcNAc(b1-2)Man = target: Gal(b1-4)GlcNAc(b1-2)Man
# Procedure, shortened: as §1
# [10] = target: Gal(b1-4)GlcNAc(b1-2)Man(a1-3)Man(b1-4)GlcNAc(b1-4)GlcNAc
# Procedure, shortened: as §1
# [11] = target: Gal(b1-4)GlcNAc(b1-2)Man(a1-3)[Gal(b1-4)GlcNAc(b1-2)Man(a1-6)]Man(b1-4)GlcNAc(b1-4)GlcNAc
# Procedure, shortened: as §1
# [12] = target: Gal(b1-4)GlcNAc(b1-2)Man(a1-3)[Gal(b1-4)GlcNAc(b1-2)Man(a1-6)]Man(b1-4)GlcNAc(b1-4)[Fuc(a1-6)]GlcNAc
# Procedure, shortened: as §1
# [13] = target: Gal(b1-4)GlcNAc(b1-2)Man(a1-3)[Gal(b1-4)GlcNAc(b1-2)][GlcNAc(b1-4)]Man(b1-4)GlcNAc(b1-4)GlcNAc
# Procedure, shortened: as §1
# [14] = target: Gal(b1-4)GlcNAc(b1-2)Man(a1-3)[GlcNAc(b1-2)Man(a1-6)]Man(b1-4)GlcNAc(b1-4)GlcNAc
# Procedure, shortened: as §1
# [15] = target: Gal(b1-4)GlcNAc(b1-2)Man(a1-3)[Man(a1-6)]Man(b1-4)GlcNAc(b1-4)GlcNAc
# Procedure, shortened: as §1
# [16] = target: Gal(b1-4)GlcNAc(b1-2)Man(a1-6)Man(b1-4)GlcNAc(b1-4)GlcNAc
# Procedure, shortened: as §1
# [17] = target: Gal(b1-4)GlcNAc(b1-2)Man(a1-6)[GlcNAc(b1-2)Man(a1-3)]Man(b1-4)GlcNAc(b1-4)GlcNAc
# Procedure, shortened: as §1
# [18] = target: Gal(b1-4)GlcNAc(b1-2)Man(a1-6)[Man(a1-3)]Man(b1-4)GlcNAc(b1-4)GlcNAc
# Procedure, shortened: as §1
# [19] = target: Gal(b1-4)GlcNAc(b1-2)[Gal(b1-4)GlcNAc(b1-4)]Man(a1-3)[Gal(b1-4)GlcNAc(b1-2)Man(a1-6)]Man(b1-4)GlcNAc(b1-4)GlcNAc
# Procedure, shortened: as §1
# [20] = target: Gal(b1-4)GlcNAc(b1-2)[Gal(b1-4)GlcNAc(b1-4)]Man(a1-3)[Gal(b1-4)GlcNAc(b1-2)[Gal(b1-4)GlcNAc(b1-6)]Man(a1-6)]Man(b1-4)GlcNAc(b1-4)GlcNAc
# Procedure, shortened: as §1
# [21] = target: Gal(b1-4)GlcNAc(b1-2)[Gal(b1-4)GlcNAc(b1-4)]Man(a1-3)[GlcNAc(b1-4)][Gal(b1-4)GlcNAc(b1-2)Man(a1-6)]Man(b1-4)GlcNAc(b1-4)GlcNAc
# Procedure, shortened: as §1
# [22] = target: Gal(b1-4)GlcNAc(b1-2)[Gal(b1-4)GlcNAc(b1-4)]Man(a1-3)[GlcNAc(b1-4)][Gal(b1-4)GlcNAc(b1-2)[Gal(b1-4)GlcNAc(b1-6)]Man(a1-6)]Man(b1-4)GlcNAc(b1-4)GlcNAc
# Procedure, shortened: as §1
# [23] = target: Gal(b1-4)GlcNAc(b1-2)[Gal(b1-4)GlcNAc(b1-6)]Man(a1-6)[Gal(b1-4)GlcNAc(b1-2)Man(a1-3)]Man(b1-4)GlcNAc(b1-4)GlcNAc
# Procedure, shortened: as §1
# [24] = target: Gal(b1-4)GlcNAc(b1-2)[Gal(b1-4)GlcNAc(b1-6)]Man(a1-6)[GlcNAc(b1-4)][Gal(b1-4)GlcNAc(b1-2)Man(a1-3)]Man(b1-4)GlcNAc(b1-4)GlcNAc
# Procedure, shortened: as §1
# [25] = target: Gal(b1-4)GlcNAc(b1-3)Gal(b1-3)GlcNAc
# Procedure, shortened: as §1
# [26] = target: Gal(b1-4)GlcNAc(b1-3)Gal(b1-4)Glc
# Procedure, shortened: as §1
# [27] = target: Gal(b1-4)GlcNAc(b1-3)Gal(b1-4)GlcNAc
# Procedure, shortened: as §1
# [28] = target: Gal(b1-4)GlcNAc(b1-3)Gal(b1-4)GlcNAc(b1-3)Gal(b1-4)GlcNAc
# Procedure, shortened: as §1
# [29] = target: Gal(b1-4)GlcNAc(b1-3)Gal(b1-4)[Fuc(a1-3)GlcNAc(b1-6)]Gal(b1-4)Glc
# Procedure, shortened: as §1
# [30] = target: Gal(b1-4)GlcNAc(b1-3)Gal(b1-4)[Fuc(a1-3)]GlcNAc(b1-3)Gal(b1-4)[Fuc(a1-3)]GlcNAc
# Procedure, shortened: as §1
# [31] = target: Gal(b1-4)GlcNAc(b1-3)GalNAc
# Procedure, shortened: as §1
# [32] = target: Gal(b1-4)GlcNAc(b1-3)[Gal(b1-4)GlcNAc(b1-6)]Gal(b1-4)GlcNAc
# Procedure, shortened: as §1
# [33] = target: Gal(b1-4)GlcNAc(b1-3)[Gal(b1-4)GlcNAc(b1-6)]GalNAc
# Procedure, shortened: as §1
# [34] = target: Gal(b1-4)GlcNAc(b1-3)[GlcNAc(b1-6)]Gal(b1-4)GlcNAc
# Procedure, shortened: as §1
# [35] = target: Gal(b1-4)GlcNAc(b1-6)Gal(b1-4)GlcNAc
# Procedure, shortened: as §1
# [36] = target: Gal(b1-4)GlcNAc(b1-6)GalNAc
# Procedure, shortened: as §1
# [37] = target: Gal(b1-4)GlcNAc(b1-6)[Gal(b1-3)]GalNAc
# Procedure, shortened: as §1
# Gal(b1-6)Gal = target: Gal(b1-6)Gal
# Procedure, shortened: as §1
# Gal3S(b1-3)GalNAc = target: Gal3S(b1-3)GalNAc
# Procedure, shortened: as §1
# Gal3S(b1-3)GlcNAc = target: Gal3S(b1-3)GlcNAc
# Procedure, shortened: as §1
binder,measurement,setting,value
B1,glycan array binding signal (z-score),[1],-0.222
same,glycan array binding signal (z-score),[2],0.032
same,glycan array binding signal (z-score),[3],-0.248
same,glycan array binding signal (z-score),[4],-0.253
same,glycan array binding signal (z-score),[5],-0.242
same,glycan array binding signal (z-score),[6],-0.249
same,glycan array binding signal (z-score),Gal(b1-4)Gal,-0.242
same,glycan array binding signal (z-score),[7],-0.243
same,glycan array binding signal (z-score),[8],-0.243
same,glycan array binding signal (z-score),Gal(b1-4)Glc,-0.249
same,glycan array binding signal (z-score),Gal(b1-4)Glc6S,-0.246
same,glycan array binding signal (z-score),Gal(b1-4)GlcNAc,-0.248
same,glycan array binding signal (z-score),[9],-0.25
same,glycan array binding signal (z-score),Gal(b1-4)GlcNAc(b1-2)Man,-0.23
same,glycan array binding signal (z-score),[10],-0.231
same,glycan array binding signal (z-score),[11],-0.241
same,glycan array binding signal (z-score),[12],-0.168
same,glycan array binding signal (z-score),[13],-0.229
same,glycan array binding signal (z-score),[14],-0.172
same,glycan array binding signal (z-score),[15],2.9
same,glycan array binding signal (z-score),[16],-0.226
same,glycan array binding signal (z-score),[17],-0.237
same,glycan array binding signal (z-score),[18],2.54
same,glycan array binding signal (z-score),[19],-0.191
same,glycan array binding signal (z-score),[20],-0.066
same,glycan array binding signal (z-score),[21],-0.252
same,glycan array binding signal (z-score),[22],-0.251
same,glycan array binding signal (z-score),[23],0.035
same,glycan array binding signal (z-score),[24],-0.226
same,glycan array binding signal (z-score),[25],-0.246
same,glycan array binding signal (z-score),[26],-0.246
same,glycan array binding signal (z-score),[27],-0.251
same,glycan array binding signal (z-score),[28],-0.235
same,glycan array binding signal (z-score),[29],-0.257
same,glycan array binding signal (z-score),[30],-0.177
same,glycan array binding signal (z-score),[31],-0.254
same,glycan array binding signal (z-score),[32],-0.26
same,glycan array binding signal (z-score),[33],-0.246
same,glycan array binding signal (z-score),[34],-0.243
same,glycan array binding signal (z-score),[35],-0.255
same,glycan array binding signal (z-score),[36],-0.234
same,glycan array binding signal (z-score),[37],-0.248
same,glycan array binding signal (z-score),Gal(b1-6)Gal,-0.231
same,glycan array binding signal (z-score),Gal3S(b1-3)GalNAc,-0.229
same,glycan array binding signal (z-score),Gal3S(b1-3)GlcNAc,-0.233
